Biological target: T1, EGFR (from SK-OV-3 derived cell lysates) (UniProt P00533)
T1 construct: whole, on cells; Tested from detergent cell lysates (co-IP, GST pull-down); also called EGF receptor
Test: GST-OPCML 1-3 pull-down, SKOV-3 lysate

B1: GST-OPCML D1+2+3 (GST fusion of all three Ig domains of OPCML) (other)
chain: [about 200 residues skipped]PKAMDNVTVRQGESATLRCTIDDRVTRVAWLNRSTILYAGNDKWSIDPRVIILVNTPTQYSIMIQNVDVYDEGPYTCSVQTDNHPKTSRVHLIVQVPPQIMNISSDITVNEGSSVTLLCLAIGRPEPTVTWRHLSVKEGQGFVSEDEYLEISDIKRDQSGEYECSALNDVAAPDVRKVKITVNYPPYISKAKNTGVSVGQKGILSCEASAVPMAEFQWFKEETRLATGLDGMRIENKGRMSTLTFFNVSEKDYGNYTCVATNKLGNTNASIT
notes: also called GST-OPCML 1+2+3; GST-OPCML 1-3
binding result: no binding

From US20130171133A1 (IMPERIAL INNOVATIONS, published 2013)
